79 sequences from the supplement of paper PMC10126150 can be followed below.

Sequences with one replicate were seen in a single cluster, so their values are uncertain.

For this series, the system named is ATP. Nature of the series: switch fluorescence ratio, 500 uM ATP over buffer (Cy3 cluster intensity, sum of 5 cycles each) (fold (ratio)); higher = stronger signal-on switching upon ATP binding; sequences stand for … in TCGTCGGCAGCGTCAGATGTGTATAAGAGACAGTTTTTTTTTTTTTTTTTTTTTTTTT…TC. As to conditions: aptamer strand: ATP DNA aptamer (quencher-CACCTGGGGGAGTATTGCGGAGGAAGG + anchor), 100 nM annealed; ATP concentration: 500 uM; one replicate. Summed up: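 Five buffer/ATP imaging cycles were run on Cy3-labelled switching-strand clusters on a modified Illumina MiSeq flow-cell, with NaOH stripping and re-annealing between cycles. In each cycle, clusters annealed to 100 nM quencher-labelled ATP aptamer were imaged in selection buffer, then after 15 min with 500 uM ATP at 22 °C. Per cluster, the fluorescence ratio is summed target-cycle over summed buffer-cycle Cy3 intensity, averaged per switch-domain sequence. Only clusters within 100-1000 RFU were kept.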
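Note: ATP exposure 15 min at 22 °C before imaging.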

Turning to GTTGCAGTGA, the switch fluorescence ratio is 1.02.

Regarding ATGACCGATG, the switch fluorescence ratio came out at 1.01.

With TACGTTGGG, the switch fluorescence ratio is 0.966.

Turning to GAGTATACAC, the switch fluorescence ratio was 0.927.

For the sequence TATTCCCGAT, the switch fluorescence ratio stood at 1.02.

Consider ATCACCGGAT, for which the switch fluorescence ratio was 1.03.

Regarding TGATTCTTTG, the switch fluorescence ratio came to 0.995.

As for TCCTAAGGGT, the switch fluorescence ratio turned out to be 1.02.

Turning to ACGCTCGGGC, the switch fluorescence ratio was found to be 0.977.

With TAGTCAGCAG, the switch fluorescence ratio was 1.05.

TAAGAGACT: the switch fluorescence ratio is 0.996.

Regarding AAGTGAATTT, the switch fluorescence ratio was 1.

In the case of GATGTTTAGA, the switch fluorescence ratio came out at 0.982.

For the sequence GATCATGAGG, the switch fluorescence ratio came to 0.993.

Turning to TCAGATGGAT, the switch fluorescence ratio is 1.04.

CTACGGGATA: the switch fluorescence ratio turned out to be 3.1.

As for CGAGAAGGTC, the switch fluorescence ratio is 0.995.

For the sequence TCCGGCTCTT, the switch fluorescence ratio was found to be 1.12.

ATCGGTTGCG: the switch fluorescence ratio worked out at 0.944.

CATCGCGCCT: the switch fluorescence ratio was found to be 1.11.

With CATGTGCCCG, the switch fluorescence ratio is 1.05.

Turning to CGCAACTAAT, the switch fluorescence ratio was determined as 1.73.

Turning to ACGGGTAAAA, the switch fluorescence ratio was determined as 1.01.

Take ATTACACCAT: the switch fluorescence ratio came out at 1.09.

Turning to AAGGTTGAGA, the switch fluorescence ratio is 0.959.

As for TTAAGTGAG, the switch fluorescence ratio was found to be 1.

With ACAGGCGCGT, the switch fluorescence ratio was found to be 1.07.

Take GTTTTGAGA: the switch fluorescence ratio was determined as 0.976.

For the sequence CGATTGGGG, the switch fluorescence ratio is 0.998.

Turning to ATTTTACAGG, the switch fluorescence ratio was 1.01.

For CCCCTCCTCT, the switch fluorescence ratio came to 1.3.

Consider GTTCCAAGTT, for which the switch fluorescence ratio was found to be 0.977.

Turning to ATTCTCGTTC, the switch fluorescence ratio came out at 1.02.

For the sequence GCCCTATCTA, the switch fluorescence ratio is 1.02.

Consider TCCGCCCCTA, for which the switch fluorescence ratio is 1.65.

Turning to TCATTAGACG, the switch fluorescence ratio amounted to 1.05.

For the sequence GAGTGCTAGG, the switch fluorescence ratio amounted to 1.02.

Consider GTTTGAGCTG, for which the switch fluorescence ratio worked out at 0.969.

On to CTGTCGAAAA, for which the switch fluorescence ratio amounted to 1.

For GGCGGTGGTG, the switch fluorescence ratio is 1.

Consider TTTTCGGCCA, for which the switch fluorescence ratio was determined as 0.994.

For CCCAATGTTT, the switch fluorescence ratio was 1.16.

As for TCTTGCTTG, the switch fluorescence ratio worked out at 0.985.

On to TGCGCAGTGT, for which the switch fluorescence ratio was 1.01.

With GCTACTAGCC, the switch fluorescence ratio stood at 1.06.

Turning to GTGAAAAAAC, the switch fluorescence ratio amounted to 1.13.

Take TAGTGAGGTG: the switch fluorescence ratio was 1.02.

For ATAGTATGCT, the switch fluorescence ratio is 1.06.

On to TGAATGGTAC, for which the switch fluorescence ratio came to 1.02.

As to CAGTGCTGT, the switch fluorescence ratio worked out at 0.931.

For the sequence TCGCCGTATT, the switch fluorescence ratio amounted to 1.01.

With CGTACTATG, the switch fluorescence ratio came to 0.994.

Consider TTTATGCTAT, for which the switch fluorescence ratio was found to be 1.01.

For the sequence AGTGAGGTAC, the switch fluorescence ratio came out at 1.05.

As to CGTGCCTGTG, the switch fluorescence ratio amounted to 0.985.

Turning to CAGGTTATTC, the switch fluorescence ratio was found to be 0.934.

Take ATGCCTAAAA: the switch fluorescence ratio turned out to be 1.

GGCCGGGTTG: the switch fluorescence ratio amounted to 0.984.

Turning to GGCTTAAGA, the switch fluorescence ratio came out at 0.971.

For the sequence AATTGGCTTT, the switch fluorescence ratio was determined as 0.995.

As to GATACCTCGG, the switch fluorescence ratio was found to be 0.978.

On to ATAGTTAATT, for which the switch fluorescence ratio was 0.986.

Regarding GCAAGGTGAT, the switch fluorescence ratio is 1.16.

AGAGTCATAA: the switch fluorescence ratio was 0.982.

For the sequence TTCAGTTGCC, the switch fluorescence ratio was 1.02.

With TAATCCTTG, the switch fluorescence ratio worked out at 0.987.

On to GCCTTACATA, for which the switch fluorescence ratio is 1.07.

In the case of AAGGATATTC, the switch fluorescence ratio was 0.965.

For AAGGGCAGCA, the switch fluorescence ratio is 0.983.

Turning to TTACCGGTGG, the switch fluorescence ratio stood at 0.898.

As for CGGCAGTCTA, the switch fluorescence ratio is 0.973.

Regarding GCGCTATGGA, the switch fluorescence ratio came out at 1.07.

ACGTTTCATG: the switch fluorescence ratio was found to be 1.

TGATGCGACT: the switch fluorescence ratio is 0.988.

Take CGGCTTAAAT: the switch fluorescence ratio amounted to 0.972.

For the sequence CGAAGGGCGT, the switch fluorescence ratio came out at 0.997.

As for CCCCTCGGTC, the switch fluorescence ratio stood at 1.16.

For TGATACATT, the switch fluorescence ratio worked out at 1.05.

CAAAAGCATG: the switch fluorescence ratio worked out at 0.996.
